Data on 115 sequences can be found in the BET-seq Pho4 binding data (Le et al. 2018).

The other results are listed elsewhere or left out. Values were computed here from the reads of four pooled replicates and scatter widely.

The target in the test is T1, Pho4 (S. cerevisiae) (UniProt P07270).
T1 sequence: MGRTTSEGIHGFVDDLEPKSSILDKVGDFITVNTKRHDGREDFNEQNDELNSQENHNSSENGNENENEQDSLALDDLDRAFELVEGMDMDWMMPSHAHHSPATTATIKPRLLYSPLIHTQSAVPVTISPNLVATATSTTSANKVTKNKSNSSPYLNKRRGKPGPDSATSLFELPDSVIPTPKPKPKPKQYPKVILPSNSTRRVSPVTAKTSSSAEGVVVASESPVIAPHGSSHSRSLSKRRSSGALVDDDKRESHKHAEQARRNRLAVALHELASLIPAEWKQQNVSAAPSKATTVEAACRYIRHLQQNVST
Kind of test: relative binding free energy (BET-seq); higher = weaker binding. Conditions: reference: library average.
As for AGGCCCACGTGGGGTT, the “relative binding free energy” value is -0.2 kcal/mol.

TAGAGCACGTGTGTAG: the “relative binding free energy” value is -0.07 kcal/mol.

On to CAGGGCACGTGGCTGT, for which the “relative binding free energy” value is -0.16 kcal/mol. GTGGCCACGTGTCGGT: the “relative binding free energy” value was 0.11 kcal/mol. Consider GGGCTCACGTGGGGTT, for which the “relative binding free energy” value came out at 0.1 kcal/mol. As to GGTTACACGTGTATGC, the “relative binding free energy” value was 0.08 kcal/mol. Regarding GTTAACACGTGCAGTT, the “relative binding free energy” value was determined as 0.04 kcal/mol. Regarding AGGGTCACGTGGGTAA, the “relative binding free energy” value is 0 kcal/mol. For CGGTGCACGTGCGAGT the value was 0 kcal/mol. For the sequence GAGGACACGTGTGTGC, the “relative binding free energy” value was 0.04 kcal/mol. The same measure for GGATACACGTGGCAGG: 0.04 kcal/mol; for TTTAGCACGTGATTAT: -0.01 kcal/mol.

On to TATGGCACGTGTATGC, for which the “relative binding free energy” value is -0.06 kcal/mol. In the case of GTTGCCACGTGTGTCG, the “relative binding free energy” value was -0.01 kcal/mol. For TGGTGCACGTGGGTGG the value was -0.12 kcal/mol; for AATGACACGTGTGGAG, 0.11 kcal/mol. Take ATTTGCACGTGGAAGG: the “relative binding free energy” value worked out at 0.17 kcal/mol. On to TTTCCCACGTGGTGTG, for which the “relative binding free energy” value is -0.23 kcal/mol.

In the case of TTGTGCACGTGAAGTT, the “relative binding free energy” value is 0.29 kcal/mol. For GGTTGCACGTGAGCGG, the “relative binding free energy” value was 0.23 kcal/mol. For the sequence GGTACCACGTGAGGTT, the “relative binding free energy” value amounted to 0.29 kcal/mol. Take TTATTCACGTGGGTTG: the “relative binding free energy” value stood at 0.15 kcal/mol.

As to GTTTACACGTGTTGAG, the “relative binding free energy” value is 0.29 kcal/mol.

With GAGCGCACGTGTGGGA, the “relative binding free energy” value stood at 0.03 kcal/mol. The same measure for TGTAGCACGTGGGCAA: -0.12 kcal/mol; for AGGGGCACGTGGCCAG: -0.18 kcal/mol. For the sequence CGCGGCACGTGAGTGT, the “relative binding free energy” value was determined as 0.16 kcal/mol.

With GATAGCACGTGGTATG, the “relative binding free energy” value is -0.08 kcal/mol. Turning to GGTATCACGTGCGCGG, the “relative binding free energy” value came to 0.02 kcal/mol. Consider GATGACACGTGTTGGC, for which the “relative binding free energy” value turned out to be 0.1 kcal/mol. With TTCGTCACGTGCGTAT, the “relative binding free energy” value was determined as 0.11 kcal/mol. Turning to TTGCACACGTGGAGTT, the “relative binding free energy” value is 0.03 kcal/mol. Take ATCGTCACGTGAGGGG: the “relative binding free energy” value stood at 0.15 kcal/mol.

Take AGGTGCACGTGTTAGC: the “relative binding free energy” value was -0.1 kcal/mol.

Turning to GGCTGCACGTGATGGG, the “relative binding free energy” value was determined as 0.19 kcal/mol.

Consider AGGACCACGTGGGGTT, for which the “relative binding free energy” value was -0.28 kcal/mol. On to ATTAGCACGTGGAGAT, for which the “relative binding free energy” value amounted to 0.06 kcal/mol. For AAGTTCACGTGTGCTA the value was 0.27 kcal/mol; for AGTGTCACGTGTTATC, 0.14 kcal/mol. For the sequence AGATACACGTGGGGCG, the “relative binding free energy” value is -0.02 kcal/mol. Regarding TGTAACACGTGGGAGG, the “relative binding free energy” value was -0.01 kcal/mol.

Turning to GGTGTCACGTGTCCTT, the “relative binding free energy” value was 0.24 kcal/mol. The same measure for CGTGTCACGTGCGATG: 0.08 kcal/mol. On to GATAGCACGTGTGTGA, for which the “relative binding free energy” value is -0.01 kcal/mol.

GATGGCACGTGGTTGG: the “relative binding free energy” value is -0.12 kcal/mol.

As for TGTGGCACGTGGCCTG, the “relative binding free energy” value was -0.25 kcal/mol. Take TATCTCACGTGTATAT: the “relative binding free energy” value is 0.2 kcal/mol. Turning to CGTTTCACGTGTGAGT, the “relative binding free energy” value came to 0.42 kcal/mol. Regarding ATGGGCACGTGTGAGA, the “relative binding free energy” value was -0.01 kcal/mol. For GGGAGCACGTGAGGTC the value was 0.29 kcal/mol; for ATAAGCACGTGGGTTG, -0.32 kcal/mol. For CGTTTCACGTGGTCGT the value was 0.08 kcal/mol; for CTGTGCACGTGGCGTG, -0.17 kcal/mol; for TTAGCCACGTGGTATG, -0.28 kcal/mol.

As to CCGTTCACGTGGAGTT, the “relative binding free energy” value was determined as 0.4 kcal/mol. On to CGGGTCACGTGTGTTT, for which the “relative binding free energy” value is 0.1 kcal/mol.

Regarding CTGGTCACGTGGTTTG, the “relative binding free energy” value came to 0.12 kcal/mol. For TTATTCACGTGGAGGC the value was 0.26 kcal/mol; for GTTGACACGTGTATCT, 0.14 kcal/mol. Take TGAAACACGTGATTGG: the “relative binding free energy” value worked out at 0.29 kcal/mol.

For the sequence TATGGCACGTGTAAGA, the “relative binding free energy” value is 0.08 kcal/mol.

Consider GGGGGCACGTGATTAG, for which the “relative binding free energy” value turned out to be 0.02 kcal/mol. For TGTTTCACGTGGGAAC the value was 0.16 kcal/mol. Turning to ACCTGCACGTGTGGGG, the “relative binding free energy” value is 0.05 kcal/mol.

Turning to AGGTGCACGTGCAGGT, the “relative binding free energy” value was -0.2 kcal/mol. The same measure for CGGGGCACGTGTTGCT: -0.14 kcal/mol. Consider AGGTGCACGTGTCGCG, for which the “relative binding free energy” value was found to be 0.11 kcal/mol.

As for AGGTTCACGTGTCGCT, the “relative binding free energy” value came to 0.19 kcal/mol. On to GGTATCACGTGAGGGT, for which the “relative binding free energy” value is 0.45 kcal/mol. Regarding CTGAGCACGTGGGTTT, the “relative binding free energy” value is -0.18 kcal/mol. As to AAGTTCACGTGACGTG, the “relative binding free energy” value amounted to 0.31 kcal/mol. In the case of GCGGGCACGTGGGCTT, the “relative binding free energy” value is -0.28 kcal/mol. For the sequence GGTGCCACGTGGGATT, the “relative binding free energy” value was -0.09 kcal/mol. Consider GGATTCACGTGTCGGC, for which the “relative binding free energy” value is 0.32 kcal/mol. GGATACACGTGGTTGG: the “relative binding free energy” value came out at 0.1 kcal/mol. For TGTTACACGTGCGTGT, the “relative binding free energy” value is -0.07 kcal/mol. For the sequence ATCGTCACGTGGGATT, the “relative binding free energy” value came out at 0 kcal/mol. Turning to AAGTACACGTGAAATG, the “relative binding free energy” value was found to be 0.47 kcal/mol.

For GTAATCACGTGGATTT, the “relative binding free energy” value came to 0.13 kcal/mol.

For the sequence AAGTGCACGTGTCAGT, the “relative binding free energy” value was -0.03 kcal/mol. TGAGTCACGTGTGTGA: the “relative binding free energy” value was found to be 0.13 kcal/mol. AGTTGCACGTGGGGCA: the “relative binding free energy” value is -0.1 kcal/mol. Regarding TTTGGCACGTGACTAT, the “relative binding free energy” value turned out to be 0 kcal/mol.

For ATGGACACGTGGAGCG, the “relative binding free energy” value is 0.02 kcal/mol. With GGAAGCACGTGTAGGT, the “relative binding free energy” value is -0.04 kcal/mol. As for TTTATCACGTGGTGGC, the “relative binding free energy” value was determined as 0.02 kcal/mol. For TGAATCACGTGATTTT, the “relative binding free energy” value stood at 0.24 kcal/mol. For TGTATCACGTGAACTG the value was 0.37 kcal/mol; for CGTTTCACGTGGAGTA, 0.34 kcal/mol; for GTGGGCACGTGTTCGA, -0.05 kcal/mol. For the sequence TAATTCACGTGGTAGA, the “relative binding free energy” value was 0.03 kcal/mol. The same measure for TTGTTCACGTGATCGT: 0.4 kcal/mol.

Consider GGTGTCACGTGGTACA, for which the “relative binding free energy” value was found to be 0.04 kcal/mol.

TAATCCACGTGTGTTG: the “relative binding free energy” value was 0.04 kcal/mol. As for TCTCGCACGTGTTGGG, the “relative binding free energy” value was -0.03 kcal/mol. Consider ACGGTCACGTGGTTTG, for which the “relative binding free energy” value worked out at 0.15 kcal/mol. For AGCGTCACGTGGTAGA, the “relative binding free energy” value came to 0.02 kcal/mol. With GGGACCACGTGTGGCG, the “relative binding free energy” value is 0.05 kcal/mol. For AGGGACACGTGTAAGT the value was 0.08 kcal/mol; for TGGGCCACGTGTTGGG, 0.03 kcal/mol. Turning to AGAAGCACGTGGGAGG, the “relative binding free energy” value is -0.12 kcal/mol. Regarding CGTATCACGTGATGTG, the “relative binding free energy” value turned out to be 0.21 kcal/mol. As to GGCGGCACGTGCTGGG, the “relative binding free energy” value was -0.15 kcal/mol. For TAGGGCACGTGATGTA, the “relative binding free energy” value came out at 0.02 kcal/mol. In the case of GTGTCCACGTGTTTGC, the “relative binding free energy” value is 0.16 kcal/mol. With TTAGTCACGTGGGTAA, the “relative binding free energy” value stood at 0 kcal/mol. Take GGGGTCACGTGGCCAG: the “relative binding free energy” value amounted to 0.02 kcal/mol. Turning to AATCGCACGTGGGTTG, the “relative binding free energy” value was -0.18 kcal/mol. For the sequence CCGTTCACGTGGCGGG, the “relative binding free energy” value amounted to 0.23 kcal/mol.

TGTGGCACGTGCGGTG: the “relative binding free energy” value is -0.12 kcal/mol. On to TTTTGCACGTGAGTGC, for which the “relative binding free energy” value is 0.19 kcal/mol. Regarding GGCGGCACGTGCTTGT, the “relative binding free energy” value is -0.03 kcal/mol.

For the sequence TTCTTCACGTGTGAGC, the “relative binding free energy” value was determined as 0.48 kcal/mol.

GTTTTCACGTGGTGCA: the “relative binding free energy” value amounted to 0.35 kcal/mol.

Consider TTTGTCACGTGTAATA, for which the “relative binding free energy” value is 0.23 kcal/mol.
